Experimental data taken from the RNAGym collection of RNA variant scans (doi:10.1093/nar/gkz1192).
The source gives no read counts; variants with many changes may rest on few reads.

B1: CPEB3 Ribozyme (parent)
chain: UAACAGGGGGCCACAGCAGAAGCGUUCACGUCGCAGCCCCUGUCAGAUUCUGGUGAAUCUGCGAAUUCUGCUGUAUAUCUC

Variants of: B1
Assay: self-cleavage, relative activity (ratio to wild type); higher = more cleavage; in vitro, sequencing
How it was run: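 Libraries of CPEB3 self-cleaving ribozyme mutants came from rounds of error-prone PCR and carried barcodes, which DNA sequencing matched to variants. In vitro transcription used T7 RNA polymerase at 37°C for 5 hours, with a further 15 min in DNase I before EDTA stopped the reaction; the ribozymes cleaved during both steps. The RNA was reverse transcribed with template switching and sequenced on Illumina. Relative activity is the cleaved/total read fraction of a variant divided by that of the unmutated ribozyme, averaged over three batches with at least 5 reads.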

Row | Variant | self-cleavage
1 | UAACAGGGGGCCACAGCAGAAGCGUACACGUCGCAGCCCCCGUCAGAUUCUGGUGAAUCUGCGAAUUCUGCUGUACACCUC [U26A U41C U76C U78C] | 0.79
2 | UAACAGGGGGCCACAGCAGAAGCGUACACGUCGCAGCCCCUGUCAGAUUCUGGUGAAACAGCGAAUUCUGCUGUAUAUCUC [U26A U58A U60A] | 0.12
3 | UAACAGGGGGCCACAGCAGAAGCGUACACGUCGCAGCCCCCGUCUGAUUCUGGUGAAUCUACGAAUUCUGCUGUAUAUCUC [U26A U41C A45U G61A] | 0.21
4 | UAACAGGGGGCCACAGCAGAAGCGUACACGUCGCAGCCCCUGACAGAUACUGGUGAAUCUGCGAAUUCUGCUGUAUAUCUC [U26A U43A U49A] | 0.07
5 | UAACAGGGGGCCACAGCAGAAGCGUACACGUCGCAGCCCCUGUCAGAUUCUGGUGAAUCCGCGACUUCUGCUGUAUAUCUC [U26A U60C A65C] | 0.36
6 | UAACAGGGGGCCACAGCAGAAGCGUACACGUCGCAGCCCCCGUCAGAUUCUGGUGAAUCCGCGAAUUCUGCUGUAUAUCUC [U26A U41C U60C] | 0.27
7 | UAACAGGGGGCCACAGCAGAAGCGUACACGUCGCAGCCCCUGCCAGUUUCUGGUGAGUCUGCGAAUUCUGCUGUAUAUCUC [U26A U43C A47U A57G] | 0.42
8 | UAACAGGGGGCCACAGCAGAAGCGUACACGUCGCAGCCCCCGCCAGAUUCUGGAGAAUCCGCGAAUUCCGCUGUAUAUCUC [U26A U41C U43C U54A U60C U69C] | 0.14
9 | UAACAGGGGGCCACAGCAGAAGCGUACACGUCGCAGCCCCUGCCAGAUUCUGGUGAAUCUGCGAAUUCUGCUGUAUAUCCC [U26A U43C U80C] | 0.42
10 | UAACAGGGGGCCACAGCAGAAGCGUACACGUCGCAGCCCCUGUCAGAUUCUGGCGAAUCUGGGAAUUCUGUUGCAUACCUC [U26A U54C C62G C71U U74C U78C] | 0.15
11 | UAACAGGGGGCCACAGCAGAAGCGUACACGUCGCAGCCCCUGUCAGAUUCUGGUGAACCAGCGAACUCUGCUGUAUAUCUC [U26A U58C U60A U66C] | 0.19
12 | UAACAGGGGGCCACAGCAGAAGCGUACACGUCGCAGCCCCUGACAGAUUCUGGUGAAUCUGCGAAAUCUGCUGUAUAUCAC [U26A U43A U66A U80A] | 0.1
13 | UAACAGGGGGCCACAGCAGAAGCGUACACGUCGCAGCCCCUGUCAGAUUCUGGAGAAUCUGCGAACUCUGCUGUAUAUCUC [U26A U54A U66C] | 0.38
14 | UAACAGGGGGCCACAGCAGAAGCGUACACGUCGCAGCCCCCGUCAGAUUCUGGUGGAUCUGCGAAUUCUGCUGUAUAUCUC [U26A U41C A56G] | 0.54
15 | UAACAGGGGGCCACAGCAGAAGCGUACACGUCGCAGCCCCCGUCAGAUUCUGGUGUAUCUGCGAAUUCUGCUGUAUAUCUC [U26A U41C A56U] | 0.42
16 | UAACAGGGGGCCACAGCAGAAGCGUACACGUCGCAGCCCCUGUCAGAUUCUGGUGAAUCAGCGAAUUCUGCUGUAUAUCUU [U26A U60A C81U] | 0.42
17 | UAACAGGGGGCCACAGCAGAAGCGUACACGUCGCAGCCCCUGUCAGAUUCGGGUGAAUCAGCGAAUUCUGCCGUAUAUCUC [U26A U51G U60A U72C] | 0.29

Row | Variant | self-cleavage
18 | UAACAGGGGGCCACAGCAGAAGCGUACACGUCGCAGCCCCUGACAGAUUCUGGUGAUUCAGCGAAUUCUGCAGUAUAUCUC [U26A U43A A57U U60A U72A] | 0.09
19 | UAACAGGGGGCCACAGCAGAAGCGUACACGUCGCAGCCCCCGUCAGAUUCUGGUGAGUCUGCGAAUUCUGCCGUAUAUCUC [U26A U41C A57G U72C] | 0.59
20 | UAACAGGGGGCCACAGCAGAAGCGUACACGUCGCAGCCCCCGUCAGAUUCUGGUGAAUCUGCGUAUUCUGCUGUAUAUCUC [U26A U41C A64U] | 0.17
21 | UAACAGGGGGCCACAGCAGAAGCGUACACGUCGCAGCCCCUGUCAGAUUCAGGUGAAUCUGCGGAUUCAGCUGUAUAUCUC [U26A U51A A64G U69A] | 0.18
22 | UAACAGGGGGCCACAGCAGAAGCGUACACGUCGCAGCCCCUGCCAGAUUCUGGUGAAUCUGCGAACUCUGCUGUAUAUCUC [U26A U43C U66C] | 0.17
23 | UAACAGGGGGCCACAGCAGAAGCGUACACGUCGCAGCCCCGGUCAGAUUCUGGAGAAUCAGCGAAUUCUGCUGUAUAUCUC [U26A U41G U54A U60A] | 0.11
24 | UAACAGGGGGCCACAGCAGAAGCGUACACGUCGCAGCCCCUGUCAGAUCCCGGUGGAUCUGCGAAUUCUGCCGUAUAUCUC [U26A U49C U51C A56G U72C] | 0.65
25 | UAACAGGGGGCCACAGCAGAAGCGUACACGUCGCAGCCCCUGUCAGAUCCUGGUGAAUCUGCGUGUUCCGCUGUAUAUCUC [U26A U49C A64U A65G U69C] | 0.08
26 | UAACAGGGGGCCACAGCAGAAGCGUACACGUCGCAGCCCCUGUCAGAUUCCGGUGAAUGUGCGGAUACUGCUGUAUAUCUC [U26A U51C C59G A64G U67A] | 0.14
27 | UAACAGGGGGCCACAGCAGAAGCGUACACGUCGCAGCCCCUGUCAGAUGCUGGUGAAUCUGCGUAUACUGCUGUAUAUCUC [U26A U49G A64U U67A] | 0.08
28 | UAACAGGGGGCCACAGCAGAAGCGUACACGUCGCAGCCCCUGUCAGAUUCUGGCGAAUCUGCGAAUUCUGCUGUAUAUCAC [U26A U54C U80A] | 0.94
29 | UAACAGGGGGCCACAGCAGAAGCGUACACGUCGCAGCCCCUGAUAGAUUCUGGUGAAUCCGCGAAUUCUGCUGCAUAUCUC [U26A U43A C44U U60C U74C] | 0.42
30 | UAACAGGGGGCCACAGCAGAAGCGUACACGUCGCAGCCCCUGUCAGAUACUGGUGAAUCUGCGAAUUCAGCUGUAUAUCUC [U26A U49A U69A] | 0.16
31 | UAACAGGGGGCCACAGCAGAAGCGUACACGUCGCAGCCCCUGACAGGUUCUGGUGAACCGGCGAAUUCUGCUGUAUGUCUC [U26A U43A A47G U58C U60G A77G] | 0.06
32 | UAACAGGGGGCCACAGCAGAAGCGUACACGUCGCAGCCCCAGUCAGAUUCCGGUGAGUCUGCGGAUUCUGCUGUAUAUCUC [U26A U41A U51C A57G A64G] | 0.2
33 | UAACAGGGGGCCACAGCAGAAGCGUACACGUCGCAGCCCCCGUCAGAUUCUGGUGAACCUGCGAAUUCAGCUGUAUAUCUC [U26A U41C U58C U69A] | 0.15
34 | UAACAGGGGGCCACAGCAGAAGCGUACACGUCGCAGCCCCUGUCAGAUUCUGGUGAAUCAUCGAAUUCUGCUGUAUAUCUC [U26A U60A G61U] | 0.21
